Laboratory results published in a compilation of properties of binary mixtures (doi:10.1016/j.molliq.2018.09.007).
Some of these densities may be calculated back from excess volumes.

Assay: xn = mol fraction of the nth substance listed
Conditions: 100 kPa

OCCO + CC[n+]1ccn(C)c1.O=S(=O)([O-])C(F)(F)F
x1 = 1
Conditions | mass density [kg/m3]
303.15 K | 1106.2
313.15 K | 1099.1
323.15 K | 1092

CC[n+]1ccn(C)c1.O=S(=O)([O-])C(F)(F)F + OCCO
mass density [kg/m3]
Conditions | x2 = 0.0943 | x2 = 0.2021 | x2 = 0.2937 | x2 = 0.408 | x2 = 0.5013 | x2 = 0.6019 | x2 = 0.6917 | x2 = 0.798 | x2 = 0.8964
298.15 K | 1370.6 | 1359.1 | 1347.8 | 1330.8 | 1313 | 1289.5 | 1264.3 | – | 1182.6
303.15 K | – | 1355.2 | 1343.8 | 1327 | 1309.4 | 1286.2 | 1260.8 | 1223.7 | 1179.1
308.15 K | 1362.4 | 1351.2 | 1339.9 | 1323.2 | 1305.8 | – | 1257.4 | 1220.3 | –
313.15 K | 1358.4 | 1347.3 | 1336 | – | 1302.3 | 1279.2 | 1253.9 | 1216.9 | 1171.9
318.15 K | – | 1343.4 | 1332.2 | 1315.7 | 1298.7 | 1275.9 | 1250.7 | 1213.8 | 1168.4
323.15 K | – | – | 1328.4 | – | 1295.1 | 1272.6 | 1247.4 | 1210.6 | 1164.9
